# Data from PubChem BioAssay AID463173 (ICCB-Longwood Screening Facility, Harvard Medical School, 2010).
# Among all 52,000 compounds or so, about 1,700 (3.3%) were called active. Cut-off read from the data, not from the text of the source: active = survival mostly below about 52% (no sharp cut-off); inactive = mostly above about 56%. The list shows a part of the results.
# Tested on: Wild type
# Assay: S. aureus survival, RN4220 and DeltatarO strains – OD600, teichoic acid synthesis inhibitors, primary screen (AID 463173)
# Settings: S. aureus RN4220 wild type/DeltatarO growth, OD600, 18 h, active compounds read low, screened at 18.75 µg/mL (by protocol)
row,Structure (SMILES),survival
1,CCOc1ccccc1NC(=O)c1cc2cc(C)ccc2n1C,inactive: 87%
2,COc1cccc(CNC(=O)c2ccc3c(c2)N(C)C(=O)C2CCCCN32)c1 (stereo not given),inactive: 68%
3,COc1ccc(-c2nc(SCC(=O)Nc3ccc4c(c3)OCO4)c(-c3ccccc3)[nH]2)cc1,inactive: 73%
4,CCc1ccc(NC(=O)C2CCC(CNS(=O)(=O)c3cccs3)CC2)cc1 (stereo not given),inactive: 110%
5,COc1ccccc1NC(=O)C1=C(C)Nc2nc(-c3ccco3)nn2C1c1ccccc1 (stereo not given),inactive: 74%
6,Cc1ccccc1NC(=O)c1c(NC(=O)c2ccncc2)sc2c1CCC(C(C)(C)C)C2 (stereo not given),inactive: 91%
7,CCOC(=O)c1c(NC(=O)c2cc(-c3ccc(Cl)cc3)on2)sc2c1CCCC2,inactive: 75%
8,Cc1ccc(CNc2oc(-c3ccc(COc4ccc(Cl)cc4)o3)nc2C#N)cc1,inactive: 95%
9,COc1ccc(Nc2nc3c(S(=O)(=O)c4ccc(Br)cc4)nnn3c3ccsc23)c(OC)c1,inactive: 70%
10,CC1CCN(c2cc3c(cc2F)c(=O)c(S(=O)(=O)c2ccc(Cl)cc2)cn3C)CC1,inactive: 71%
11,COc1ccccc1OCC(=O)Nc1ccc(S(=O)(=O)N2CCN(C)CC2)cc1,inactive: 112%
12,CCC(=O)N1CCc2cc(Br)cc(S(=O)(=O)N3CCC(C(=O)N(CC)CC)CC3)c21,inactive: 90%
13,CCn1cc(C(=O)N2CCN(c3cc(Cl)ccc3C)CC2)c(=O)c2cc(S(=O)(=O)N3CCOCC3)ccc21,inactive: 86%
14,CC1CCCN(CC(O)CN)C1 (stereo not given),inactive: 104%
15,CCOc1ccc(-c2cc3nc(C4CCN(C(=O)OC(C)(C)C)CC4)c(C(=O)Nc4ccc(C)c(F)c4)cn3n2)cc1,inactive: 86%
16,CNC(=S)N1C2CCC1CC(NC(=O)NC13CC4CC(CC(C4)C1)C3)C2 (stereo not given),inactive: 118%
17,Cc1ccccc1OCc1cc(=O)n2c(-c3ccccc3)csc2n1,inactive: 78%
18,CC(C)CCNC(=O)c1cn(C)c2ccc(S(=O)(=O)N3CCCC3)cc2c1=O,inactive: 130%
19,COc1ccc2c(c1)CC(C(=O)Nc1cc(OC)c(OC)c(OC)c1)CO2 (stereo not given),inactive: 84%
20,Cc1cccc(CCNC(=O)CCc2c(C)nc3c(c(C)nn3-c3ccccc3)c2C)c1,inactive: 63%
21,CCOC(=O)c1cc2c(=O)n3ccccc3nc2n(C(C)C)c1=NC(=O)c1c(-c2c(F)cccc2Cl)noc1C,inactive: 138%
22,CCc1cccc(C)c1NC(=O)c1cc(S(=O)(=O)N2CCN(c3ccccc3)CC2)ccc1F,inactive: 73%
23,COc1ccc(OC)c(CNc2ncnc3onc(C)c23)c1,inactive: 152%
24,Clc1ccc(CNc2ncnc3onc(-c4ccc(Cl)cc4)c23)cc1,inactive: 110%
25,CC1=CCC2C(=O)N(C3CCCCC3)C(=O)C2C1 (stereo not given),inactive: 122%
26,CN(C)c1ccc(C(=O)NCc2ccc3c(c2)CCN3C(=O)c2ccc(Cl)cc2)cc1,inactive: 135%
27,COc1ccc(Cl)cc1NC(=O)CCn1nc(C)cc1C,inactive: 60%
28,CN1C(=O)c2ccccc2Sc2ccc(NC(=O)N3CCN(c4cccc(Cl)c4)CC3)cc21,inactive: 83%

row,Structure (SMILES),survival
1,COc1ccc(C(=O)NCc2ccc3c(c2)CCN3C(=O)c2ccc(Cl)cc2)c(OC)c1,inactive: 78%
2,COc1ccc(OC(=O)c2ccc3snnc3c2)cc1,inactive: 106%
3,COc1cc(OC)cc(C(=O)Nc2cccc(-c3cn4ccsc4n3)c2)c1,active: 1%
4,N#Cc1cc2cc3c(cc2nc1N1CCCN(C(=O)c2ccccc2)CC1)OCO3,inactive: 103%
5,CCC1CN(C(=O)N2CCC(C(=O)NCCC3=CCCCC3)CC2)c2ccccc2O1 (stereo not given),inactive: 90%
6,CCC(Cc1ccccc1)NC(=O)c1cccc(Nc2nc3ccccc3nc2-n2nc(C)cc2C)c1 (stereo not given),inactive: 78%
7,CC(C)OCCCn1c(SCc2ccccc2Cl)nc2c(sc3ccccc32)c1=O,inactive: 159%
8,CCOc1ccc(NC(=O)CSc2cn(CC(=O)N3CCOCC3)c3ccccc23)cc1,inactive: 95%
9,CCC1CCCCN1C(=O)Cn1c(=O)n(-c2ccc(Cl)c(Cl)c2)c(=O)c2c(C)c(C(=O)N(C)C)sc21 (stereo not given),inactive: 79%
10,CCOc1ccc(NC(=O)C2CCC(CNS(=O)(=O)c3ccc4c(c3)CCCC(=O)N4)CC2)cc1 (stereo not given),inactive: 60%
11,COc1ccc(CCNC(=O)c2cc(=O)[nH]c3ccc(S(=O)(=O)N4CCCCC4)cc23)cc1OC,inactive: 71%
12,CC(=O)Nc1c(C)nn(-c2ccccc2)c1N1CCC(C(=O)NCc2cccc(F)c2)CC1,active: 1%
13,Cc1ccc(N(CC(=O)N2CCN(c3cccc(C)c3C)CC2)S(=O)(=O)c2c(C)nn(C)c2C)cc1,inactive: 69%
14,CCN(c1cc(C)cc(C)c1)S(=O)(=O)c1nnc(NC(=O)c2ccccc2C)s1,inactive: 50%
15,CCN(CC)c1nn2c(=O)c(C(=O)NCc3ccccc3Br)cnc2s1,inactive: 90%
16,Cn1nc(C(=O)NCc2ccccc2Cl)c2c1-c1ccccc1SC2,inactive: 88%
17,Cc1cccc(NC(=O)c2ccc(Cn3nc(N4CCN(c5ccccc5)CC4)ccc3=O)o2)c1C,inactive: 73%
18,O=C(NCCc1ccc(Cl)cc1)c1cc2c(s1)-c1ccccc1OC2,inactive: 105%
19,COc1cc(OC)c2c(C)c(CC(=O)NCc3ccccc3OC)c(=O)oc2c1,inactive: 87%
20,CCOc1ccc(NC(=O)N2CCN(C(=O)c3nsc4ccccc34)CC2)cc1,inactive: 78%
21,CCCC(c1nnnn1Cc1ccc(OC)cc1)N1CCC(C(N)=O)CC1 (stereo not given),inactive: 100%
22,CC1(C)CC(=O)C(C=NCc2ccccc2)=C(O)C1,inactive: 113%
23,O=c1c2ccccc2[nH]c(=S)n1C1CCCC1,inactive: 107%
24,COc1ccc(-c2cc(C(F)(F)F)nc(SCC(=O)N(C)Cc3ccccc3)n2)cc1,active: -1%
25,O=S(=O)(Nc1cccc(-c2ccc(N3CCOCC3)nn2)c1)c1ccc(F)c(C(F)(F)F)c1,inactive: 89%
26,COc1ccc(CCNC(=O)c2ccc3c(c2)CCN3S(=O)(=O)c2ccc(C)cc2)cc1OC,inactive: 80%
27,CCOc1ccc(C(C(=O)NC2CCCC2)N(Cc2ccco2)C(=O)Cn2nnc3ccccc32)cc1OC (stereo not given),inactive: 103%
